Results from the supplement of paper PMC7826260.
The list shows a part of the results. Viral Rep nickase domains cut single-stranded DNA in vitro at 3 µM enzyme and 37 °C for 1 h; the strands have 90 letters, of which the middle is given. The score is log2 (uncut reads / reads without enzyme); the lower, the more was cut; hits are not called. Reads are scaled to the total; uncut strands gain when others are lost, and binding without cutting may add a little.

These sequences were tested on T1, Rep nickase domain of chickpea chlorotic dwarf virus (assay: uncleaved DNA left, log2 of reads against the no-enzyme library (log2 ratio); higher = less cleavage (more negative = more Rep cleavage of the k-mer); sequences stand for … in CTCGTCCG…ACCGGAGA).
T1 sequence (residues 1-124 of Rep, tag left off): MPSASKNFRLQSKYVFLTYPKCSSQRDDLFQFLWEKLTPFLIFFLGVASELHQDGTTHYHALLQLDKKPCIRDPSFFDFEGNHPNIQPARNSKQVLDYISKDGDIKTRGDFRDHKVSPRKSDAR
Description: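 A pool of 90-nt single-stranded DNAs with seven random bases just before the constant AC of the nick site (name = the seven bases) was cut by 3 µM recombinant His6-SUMO-tagged Rep nickase domain (300 nM DNA, 50 mM HEPES pH 8.0, 50 mM NaCl, 1 mM MnCl2, 1 h, 37 °C, three replicates). Uncut DNA was amplified and sequenced.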
With CCGCCTG the “uncleaved DNA left (log2)” value was 0.407.
In the case of ATGCTCA, the “uncleaved DNA left (log2)” value was -1.09.
In the case of GTCCACA, the “uncleaved DNA left (log2)” value was 0.701.
In the case of CTGTGCT, the “uncleaved DNA left (log2)” value was -1.14.
With ATAAAGT the “uncleaved DNA left (log2)” value was -0.608.
With GCGTATG the “uncleaved DNA left (log2)” value was 0.511.
For ATCCGAA, the “uncleaved DNA left (log2)” value was 0.22.
In the case of TACAAGA, the “uncleaved DNA left (log2)” value was -0.752.
In the case of CGCCAAC, the “uncleaved DNA left (log2)” value was -0.693.
With CCGTTAT the “uncleaved DNA left (log2)” value was -0.463.
In the case of TAGTAGC, the “uncleaved DNA left (log2)” value was -0.602.
With GTCGGGC the “uncleaved DNA left (log2)” value was 0.961.
With CCATGCT the “uncleaved DNA left (log2)” value was -1.21.
In the case of TGGCATC, the “uncleaved DNA left (log2)” value was 1.47.
With CTTGTGT the “uncleaved DNA left (log2)” value was -0.977.
For CACTCGT, the “uncleaved DNA left (log2)” value was -2.11.
For GTGTGAG, the “uncleaved DNA left (log2)” value was -0.168.
CTTCGGG was tested, and the “uncleaved DNA left (log2)” value was -0.0846.
In the case of GGACTAT, the “uncleaved DNA left (log2)” value was 2.
ATAACGG was tested, and the “uncleaved DNA left (log2)” value was 1.07.
In the case of TAGCGTT, the “uncleaved DNA left (log2)” value was -2.17.
In the case of GTTGTTG, the “uncleaved DNA left (log2)” value was -0.0247.
With TTAACAG the “uncleaved DNA left (log2)” value was -1.78.
In the case of AGTGGGC, the “uncleaved DNA left (log2)” value was 0.733.
For GCCAGAC, the “uncleaved DNA left (log2)” value was 0.876.
In the case of ACACGCG, the “uncleaved DNA left (log2)” value was 1.78.
For GTATGTT, the “uncleaved DNA left (log2)” value was -0.359.
With ACTCCCA the “uncleaved DNA left (log2)” value was -1.21.
In the case of GACTCTC, the “uncleaved DNA left (log2)” value was 0.259.
In the case of AAGAGGG, the “uncleaved DNA left (log2)” value was -0.13.
CCTAACC was tested, and the “uncleaved DNA left (log2)” value was -1.83.
TATGTCA was tested, and the “uncleaved DNA left (log2)” value was -1.55.
For AGGAAGG, the “uncleaved DNA left (log2)” value was 0.48.
In the case of TGTATGG, the “uncleaved DNA left (log2)” value was 0.864.
In the case of CGTTTTT, the “uncleaved DNA left (log2)” value was -1.26.
CCGCGGA was tested, and the “uncleaved DNA left (log2)” value was -0.223.
With TCTCAAA the “uncleaved DNA left (log2)” value was 0.0215.
In the case of CCGGACT, the “uncleaved DNA left (log2)” value was 0.675.
For CCTTTAA, the “uncleaved DNA left (log2)” value was -0.723.
For GCTAGGA, the “uncleaved DNA left (log2)” value was 0.513.
